Values joined by “and” are separate entries in the source; they are usually repeats but may differ in a detail not shown here. Identical values can stand only once. Screen size: about 350,000 compounds; about 31,000 (8.9%) were called active. The shares of active, inactive and inconclusive entries below differ from those in the screen. Calls come from the whole dose curve; as a rule, active = well fitted inhibition curve with a large enough effect; inconclusive = small, poorly fitted or top-dose-only effect; inactive = no such curve, though single readings can be large or run the other way. Where the call is inconclusive, the potency comes from a doubtful curve fit.
target: Histone-lysine N-methyltransferase EHMT2 (Homo sapiens) (UniProt Q96KQ7); assay: qHTS Assay for Inhibitors of Histone Lysine Methyltransferase G9a; settings: G9a H3K9 monomethylation, AlphaScreen, 2 h; activity, negative = inhibition: at 59 µM (top of the series) unless noted; note: nearly all actives have a fitted effect of over 75% in size
How it was run: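 Chemiluminescent proximity detection of H3K9 monomethylation, read after 10 min bead incubation in the dark. Reaction: 20 nM G9a, 500 nM biotin-H3K9 peptide, 20 uM SAM cofactor, 2 h, room temperature, following 15 min enzyme-compound preincubation.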
% is set by controls: 0 for no effect and ±100 for the full control effect; potency is the fitted concentration of half-maximal effect; tags give direction and shape of the fitted curve.

UniProt Q96KQ7, sequence (Q96KQ7 whole entry, looked up): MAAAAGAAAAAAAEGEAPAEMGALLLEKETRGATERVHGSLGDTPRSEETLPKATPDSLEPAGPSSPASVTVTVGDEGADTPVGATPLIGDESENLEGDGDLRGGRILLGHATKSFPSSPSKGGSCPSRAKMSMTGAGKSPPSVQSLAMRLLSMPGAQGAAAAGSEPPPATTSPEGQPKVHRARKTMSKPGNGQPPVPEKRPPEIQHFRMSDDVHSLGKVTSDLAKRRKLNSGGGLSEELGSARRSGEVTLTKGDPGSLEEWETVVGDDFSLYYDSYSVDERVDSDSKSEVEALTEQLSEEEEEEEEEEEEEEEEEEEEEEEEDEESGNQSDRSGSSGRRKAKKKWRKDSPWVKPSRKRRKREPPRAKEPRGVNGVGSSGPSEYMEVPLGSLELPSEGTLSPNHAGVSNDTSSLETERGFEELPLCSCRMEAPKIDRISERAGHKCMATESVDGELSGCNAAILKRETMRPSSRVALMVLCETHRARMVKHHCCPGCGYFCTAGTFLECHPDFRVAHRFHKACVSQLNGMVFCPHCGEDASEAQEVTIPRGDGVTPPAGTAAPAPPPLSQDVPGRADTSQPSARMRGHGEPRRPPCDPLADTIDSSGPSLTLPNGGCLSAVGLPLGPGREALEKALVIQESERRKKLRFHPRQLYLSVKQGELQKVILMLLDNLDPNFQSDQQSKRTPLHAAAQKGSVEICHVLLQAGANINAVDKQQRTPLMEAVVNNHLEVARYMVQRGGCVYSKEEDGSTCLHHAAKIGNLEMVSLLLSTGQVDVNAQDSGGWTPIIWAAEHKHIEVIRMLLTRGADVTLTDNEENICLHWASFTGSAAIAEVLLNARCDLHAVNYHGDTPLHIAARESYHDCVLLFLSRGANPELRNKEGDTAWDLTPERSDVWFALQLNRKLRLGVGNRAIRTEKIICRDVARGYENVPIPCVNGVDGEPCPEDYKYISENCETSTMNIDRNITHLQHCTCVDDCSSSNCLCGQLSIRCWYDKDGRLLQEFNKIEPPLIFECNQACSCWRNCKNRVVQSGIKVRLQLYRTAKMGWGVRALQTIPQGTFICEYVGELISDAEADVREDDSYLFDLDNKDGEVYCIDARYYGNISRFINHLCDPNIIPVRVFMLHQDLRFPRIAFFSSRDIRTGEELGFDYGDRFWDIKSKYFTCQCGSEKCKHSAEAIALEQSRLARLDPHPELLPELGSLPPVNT

| SMILES | Potency | activity, negative = inhibition |
| --- | --- | --- |
| COc1cccc(-n2c(SCC(=O)NCc3ccco3)nnc2-c2c[nH]c3ccccc23)c1 | inconclusive: 31.6 µM [inhibitor, partial curve, poor fit] | – |
| CC(=O)Oc1ccc2oc(/C=C/N(C)C)c([N+](=O)[O-])c2c1 | inconclusive: 89.1 µM [inhibitor, single point] | – |
| CCC(=O)N(c1ccc(C(=O)O)cc1)c1nc(-c2ccc(OC)cc2)c(C)s1 | inconclusive: 89.1 µM [inhibitor, partial curve, poor fit] | – |
| COc1ccccc1CC(=O)NNC(=O)c1ccc(C(C)(C)C)cc1 | inconclusive: 14.1 µM [inhibitor, partial curve, poor fit] | – |
| Nc1c(C(=O)O)sc2nc3c(cc12)CCCC3 | active: 22.4 µM | – |
| CCOC(=O)c1c(NC(=S)N2CCN(C)CC2)sc2c1CCN(C(=O)OCC)C2 | inconclusive: 31.6 µM [inhibitor, single point] | – |
| Cc1ccc2c(CN3CCN(S(=O)(=O)c4ccc5c(c4)OCCO5)CC3)cc(=O)oc2c1C | inconclusive: 79.4 µM [inhibitor, partial curve, poor fit] | – |
| O=[N+]([O-])c1ccc2[nH]c3c(c2c1)CCCC3 | active: 39.8 µM | – |
| COC(=O)C1=C(C)N(c2ccc(C)c(C)c2)/C(=C/c2ccco2)C1=O | inconclusive: 31.6 µM [inhibitor, partial curve, poor fit] | – |
| CCc1nnc2sc(-c3ccc(NC(=O)c4ccc5c(c4)OCCO5)cc3)nn12 | inconclusive: 3.55 µM [inhibitor, partial curve, poor fit] | – |
| CNC(=O)[C@H](C)[C@@H]1C[C@@]1(C)[C@@H](NC(=O)OCc1ccccc1)c1ccccc1 | inconclusive: 50.1 µM [inhibitor, partial curve, poor fit] | – |
| C/C(=N\NC(N)=S)c1ccccc1 | inconclusive: 50.1 µM [inhibitor, partial curve, poor fit] | – |
| O=C(O)Cn1cc(/C=C2/SC(=O)N(CC(=O)N3CCCCCC3)C2=O)c2ccccc21 | inconclusive: 50.1 µM [inhibitor, partial curve] | – |
| COc1ccc(CCNc2nc(-c3cccc(NC(C)=O)c3)cs2)cc1OC | – | inconclusive: -75.9% [inhibitor] |
| O=C(NCc1ccco1)c1ccccc1-c1nc(-c2ccc(F)cc2)no1 | inconclusive: 79.4 µM [inhibitor, partial curve, poor fit] | – |
| O=C1C(=O)c2ccccc2C(O)=C1c1ccccc1F | inconclusive: 0.447 µM [inhibitor, full curve] | – |
| NC(=O)CSc1nc2c(oc3ccccc32)c(=O)n1Cc1ccccc1 | – | inactive: 0.31% |
| COc1cc(C(=O)NCc2nnc(SCC(=O)N3CCc4ccccc43)o2)cc(OC)c1OC | inconclusive: 56.2 µM [inhibitor, partial curve, poor fit] | – |
| CCn1ccc2c(OCC(=O)Nc3ccc(C(C)=O)cc3)cccc2c1=O | – | inactive: -1.62% |
| CCN(CC)c1ccc(/C=N/NC(=S)NCc2ccc(OC)cc2)cc1 | inconclusive: 100 µM [inhibitor, single point] | – |
| CC(C)n1cnc2cc(NCc3ccccn3)ccc21 | inconclusive: 2.82 µM [inhibitor, partial curve, poor fit] | – |

| SMILES | Potency | activity, negative = inhibition |
| --- | --- | --- |
| Fc1ccc(-n2c(-c3ccc4ccccc4n3)n[nH]c2=S)cc1Cl | inconclusive: 3.98 µM [inhibitor, partial curve] | – |
| C#CCOCCOCCOCCNc1nc(N2CCOCC2)nc(N2CCN(C(=O)Cn3cc(CCCN=C(N)N)nn3)CC2)n1 | inconclusive: 89.1 µM [inhibitor, single point] | – |
| Cc1cccc(NC(=O)C2CCCC2)c1 | – | inactive: 25% |
| COc1ccc(S(=O)(=O)NCC(c2ccc(C)cc2)N2CCN(C)CC2)cc1 (stereo unspecified) | inconclusive: 50.1 µM [inhibitor, partial curve, poor fit] | – |
| COc1cc(-c2n[nH]c(=S)n2-c2cccc(C(F)(F)F)c2)cc(OC)c1OC | inconclusive: 39.8 µM [inhibitor, partial curve, poor fit] | – |
| Cc1ccc2c(c1)c1c3n2CCN[C@H]3CCC1 | inconclusive: 5.62 µM [inhibitor, partial curve, poor fit] and inconclusive: 1.78 µM [inhibitor, partial curve, poor fit] | – |
| CCC(=O)c1ccc(OCC(=O)OCC(=O)c2cc(C)n(CC3CCCO3)c2C)cc1 (stereo unspecified) | inconclusive: 79.4 µM [inhibitor, single point] | – |
| CCc1ccccc1NC(=O)CN(C)C(=O)CSc1nnc(Nc2ccc(C)cc2)s1 | inconclusive: 89.1 µM [inhibitor, single point] | – |
| Cn1c(SC/C=C/c2ccccc2)nnc1-c1ccco1 | inconclusive: 39.8 µM [inhibitor, single point] | – |
| COc1cc(C(=O)Nc2ccc(-n3c(C)nc4ccccc4c3=O)cc2)cc(OC)c1OC | – | inactive: 2.32% |
| CCn1cc(C(=O)O)c(=O)c2cnc(N3CCN(C(=S)Nc4ccccc4Cl)CC3)nc21 | active: 56.2 µM | – |
| COc1cccc(N2CCN(CC(=O)N3CCN(S(=O)(=O)c4ccc(Cl)cc4)CC3)CC2)c1 | inconclusive: 50.1 µM [inhibitor, partial curve, poor fit] | – |
| O=C(COCc1cc(-c2cccs2)on1)N1CCN(c2ccc(F)cc2)CC1 | – | inactive: -6.38% |
| CCOCN(C(=O)Cn1cnc2ccccc21)c1c(C)cccc1CC | inconclusive: 0.562 µM [inhibitor, partial curve, poor fit] | – |
| CCOc1cccc(NC(=O)c2sc3nc(-c4ccc(F)cc4)ccc3c2N)c1 | – | inactive: -16.4% |
| COc1cc(NC(=S)N2CCN(CCO)CC2)cc(OC)c1 | – | inactive: -2.98% [at 102 µM] |
| O=c1c(=O)n(-c2ccccc2)ccn1Cc1c(F)cccc1Cl | – | inactive: -4.25% |
| O=C(CCCOc1cccc(Br)c1)NC1CCC(O)CC1 (stereo unspecified) | – | inactive: 10.2% [at 102 µM] |
| CCOC(=O)C1CCN(C(c2ccc(OCC)cc2)c2c(O)cc(C)n(CCOC)c2=O)CC1 (stereo unspecified) | inconclusive: 39.8 µM [inhibitor, single point] | – |
| COCCN(C(=O)C1CC(=O)N(Cc2ccc(C)cc2)C1)c1c(N)n(CC(C)C)c(=O)[nH]c1=O (stereo unspecified) | – | inactive: 5.89% [at 2.33 µM] |

From PubChem BioAssay AID504332 (National Center for Advancing Translational Sciences (NCATS), 2011)
